This is one part of the list.
What follows are sequences tested against T1, OsWOX13 (Oryza sativa, UniProt Q5QMM3 1-267) (assay: protein-binding microarray (RPBM); PBS, 2% BSA, 51.3 ng/ul salmon testes DNA, 50 uM zinc acetate, 200 nM TF, 25 C, 1 h; high values mean tight binding). Settings: protein: recombinant; tags: N-terminal polyhistidine and DsRed monomer fusion (pET32a); label: CyDye5-dUTP incorporated in the synthesized complementary strand; 3' TTTTT single-stranded linker to array surface; dsDNA, one strand shown.
T1 sequence: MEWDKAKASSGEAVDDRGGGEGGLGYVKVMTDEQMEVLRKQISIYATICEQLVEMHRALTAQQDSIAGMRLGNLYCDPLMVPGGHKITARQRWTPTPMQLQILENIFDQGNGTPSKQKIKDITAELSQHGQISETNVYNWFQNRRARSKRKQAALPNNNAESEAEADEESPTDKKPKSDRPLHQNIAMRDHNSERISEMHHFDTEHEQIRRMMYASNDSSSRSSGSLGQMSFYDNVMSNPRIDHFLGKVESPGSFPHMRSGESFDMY
Outline: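 Binding signal is reported as fluorescence intensity per feature (arbitrary units) from an Axon 4000B scanner. Incubation used 200 nM of each Ni–NTA-purified, N-terminally polyhistidine- and DsRed-fused transcription factor from E. coli BL21-CodonPlus on a double-stranded custom Agilent array for 1 h at 25 °C, with 50 µM zinc acetate in the buffer, followed by washing.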
With “GGAAGATTTATTTGATATTTTAAAGTAACTTTCATTTAGACGGAGTCACCTAGTGCAG” the binding signal was 10800 fluorescence intensity (a.u.). In the case of “CCTCAATTATTTGCAAGATGGGGTCATCACTATTGTAGTACGGAGTCACCTAGTGCAG”, the binding signal is reported as 24800 fluorescence intensity (a.u.). “GAAGTGATTGATATTTGAGCAATTAGTCCGTTGTCAGGGTCGGAGTCACCTAGTGCAG” was tested, and the binding signal was 62400 fluorescence intensity (a.u.). For “AGTAATCAATTGTTTTGGTAACTTGGTAGGAGTAGGATCTCGGAGTCACCTAGTGCAG”, the binding signal was 3160 fluorescence intensity (a.u.). In the case of “ATGGAAAATGATTGTAATTAGCGGATAGAATAAAGTATTTCGGAGTCACCTAGTGCAG”, the binding signal is reported as 9100 fluorescence intensity (a.u.). “CATATAATAAACATTCAATGATGATACAAACTGCAAAGACCGGAGTCACCTAGTGCAG” was tested, and the binding signal was 4020 fluorescence intensity (a.u.). With “GATTAGATTGATCACCTTCCCTAGCATTAAATAAACAGTACGGAGTCACCTAGTGCAG” the binding signal was 33800 fluorescence intensity (a.u.). With “GTCAATTTCCAAATCAAATGTACTTAACGGGTGAACCCGTCGGAGTCACCTAGTGCAG” the binding signal was 6220 fluorescence intensity (a.u.). In the case of “AAGGCACGTTGATTGGACTAGTAGTACTACTACGTAGTAGCGGAGTCACCTAGTGCAG”, the binding signal is reported as 18400 fluorescence intensity (a.u.). In the case of “ATTGATTTACGGGATTGAAGTTAGTATAATTACATGTAAGCGGAGTCACCTAGTGCAG”, the binding signal is reported as 53600 fluorescence intensity (a.u.). For “AAACTAATCATGCGCAATGATGCGTGCAGCTGCGCGGCCGCGGAGTCACCTAGTGCAG”, the binding signal was 8020 fluorescence intensity (a.u.). “AAGATTTGCAACCAATCAATACCACCAAATTTCCGGATTTCGGAGTCACCTAGTGCAG” was tested, and the binding signal was 28300 fluorescence intensity (a.u.). In the case of “CCTTGCAAATCACTATCATCTACATACTCCAGTACAAATACGGAGTCACCTAGTGCAG”, the binding signal is reported as 3650 fluorescence intensity (a.u.). For “TTCTGATGACTAGTATGAGACGTGAATGCCAACGCTCTCACGGAGTCACCTAGTGCAG”, the binding signal was 3900 fluorescence intensity (a.u.). For “TTTAATATGATTTTAGTGAGATTAAGATGTGTAGTTAGTTCGGAGTCACCTAGTGCAG”, the binding signal was 8040 fluorescence intensity (a.u.). With “GCCGATTTGACTGTTGATTAGGCATATCTTAGCACTAAACCGGAGTCACCTAGTGCAG” the binding signal was 23800 fluorescence intensity (a.u.). “CAAATTTGTAAATTTCAGTCTCCACCTATGGTCTCTGGGCCGGAGTCACCTAGTGCAG” was tested, and the binding signal was 12000 fluorescence intensity (a.u.). In the case of “CCAATCACAGCAATACCGGTTACAGTACCTATCAGCCAAACGGAGTCACCTAGTGCAG”, the binding signal is reported as 3160 fluorescence intensity (a.u.). “CTATAATGATTAATCAAGTCAGAACAAAATAAATGATAATCGGAGTCACCTAGTGCAG” was tested, and the binding signal was 11000 fluorescence intensity (a.u.). For “TCAATAATTTACTATGGGTCCCGAGTATTAGCAACGAGACCGGAGTCACCTAGTGCAG”, the binding signal was 12000 fluorescence intensity (a.u.). “AACAAATTACTAGTTGCTATTTGAATCGATTCCCTTGCCTCGGAGTCACCTAGTGCAG” was tested, and the binding signal was 10100 fluorescence intensity (a.u.). With “CACATTAATTAATCTCCCGCGAGGAAACATCTATCCCGGTCGGAGTCACCTAGTGCAG” the binding signal was 31700 fluorescence intensity (a.u.). With “GAAAACAAATTGGGATGTAGTAGTTCCGATTTCGATTAGACGGAGTCACCTAGTGCAG” the binding signal was 6980 fluorescence intensity (a.u.). In the case of “TCGCTATAATTGACAGCGACCCTACCTTGGGCCACCGGACCGGAGTCACCTAGTGCAG”, the binding signal is reported as 57100 fluorescence intensity (a.u.). “CAAAATAAACTAGTATTATATCAACAAGCATGCTTAAGTCCGGAGTCACCTAGTGCAG” was tested, and the binding signal was 3740 fluorescence intensity (a.u.). For “ATATAGATAGACAGATCTCTATCAACTCTGAAACTAACCTCGGAGTCACCTAGTGCAG”, the binding signal was 19900 fluorescence intensity (a.u.). “TGTTCAATCTCGGTTAACTGGAACCAATTTATGAAAAGGTCGGAGTCACCTAGTGCAG” was tested, and the binding signal was 16300 fluorescence intensity (a.u.). “GAGATAGATAATAGGAGTATTGTTTATTTTATATGGGTAGCGGAGTCACCTAGTGCAG” was tested, and the binding signal was 4040 fluorescence intensity (a.u.). “ATGGTTTGACTTGGATAAACTGGATTCTTAACTCAAACCTCGGAGTCACCTAGTGCAG” was tested, and the binding signal was 3410 fluorescence intensity (a.u.). With “CCAAACAGAAAATTGGATCGCCGTATCCAATAAAATATGGCGGAGTCACCTAGTGCAG” the binding signal was 4990 fluorescence intensity (a.u.). “GAATATATATATTCAATTATTGATTTGATGAAACTAATTTCGGAGTCACCTAGTGCAG” was tested, and the binding signal was 10500 fluorescence intensity (a.u.). In the case of “ATCAAATTAGATACGTTTCACGTTTCAGTACTATGAATTTCGGAGTCACCTAGTGCAG”, the binding signal is reported as 4210 fluorescence intensity (a.u.). With “CGCCGTAACAATCAGAACCAATCATGCTCTATGTGTAGTTCGGAGTCACCTAGTGCAG” the binding signal was 30300 fluorescence intensity (a.u.). In the case of “TAAAATTACCAAATATTGGTAAGCCTAATTTAGGCCTCAACGGAGTCACCTAGTGCAG”, the binding signal is reported as 4120 fluorescence intensity (a.u.). With “ATAATTAAACAATGATACTTGATTATACTCTTTGATATTACGGAGTCACCTAGTGCAG” the binding signal was 16900 fluorescence intensity (a.u.). In the case of “AAAATTGTTGCGTGACTGAATGGAGATTTCAGATTTCTGCCGGAGTCACCTAGTGCAG”, the binding signal is reported as 19000 fluorescence intensity (a.u.). “TAATATAGATTGATTTTGATGTAATTGTTTTCTGACTATACGGAGTCACCTAGTGCAG” was tested, and the binding signal was 20800 fluorescence intensity (a.u.). “ACAAACTAAATATGTCATTACCAACACAACCTTGCGAATTCGGAGTCACCTAGTGCAG” was tested, and the binding signal was 3240 fluorescence intensity (a.u.). With “AATTAATCAGGATACAATTAATAATATACCAGTCACATTTCGGAGTCACCTAGTGCAG” the binding signal was 10600 fluorescence intensity (a.u.). In the case of “AAGAATTAAACTGATGAAGTGTCCATGATAGCGGACGCACCGGAGTCACCTAGTGCAG”, the binding signal is reported as 8740 fluorescence intensity (a.u.). “CAAACAAGAAAATAACTGTTAATTTATCTATGACTGTATGCGGAGTCACCTAGTGCAG” was tested, and the binding signal was 9180 fluorescence intensity (a.u.). For “CATTTGCTAATGACGGATTAATTAGGGTTTATAAATTCGTCGGAGTCACCTAGTGCAG”, the binding signal was 24400 fluorescence intensity (a.u.).
